{
  "source": "PubChem BioAssay AID488969",
  "about": "(Vanderbilt High Throughput Screening Facility, 2010)",
  "note": "In all, about 110,000 compounds were measured (“z-score”: median about -0.1, highest 2% from about 2 on). The list shows a part of the results. Activity calls are given as the source filed them.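 Rule for the calls: active = z-score in the third read window above 3 or below -3; inactive = the rest.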",
  "data": [
    {"molecular_target": "Metabotropic glutamate receptor 8 (Rattus norvegicus) (UniProt P70579)", "sequence (P70579 whole entry, looked up)": "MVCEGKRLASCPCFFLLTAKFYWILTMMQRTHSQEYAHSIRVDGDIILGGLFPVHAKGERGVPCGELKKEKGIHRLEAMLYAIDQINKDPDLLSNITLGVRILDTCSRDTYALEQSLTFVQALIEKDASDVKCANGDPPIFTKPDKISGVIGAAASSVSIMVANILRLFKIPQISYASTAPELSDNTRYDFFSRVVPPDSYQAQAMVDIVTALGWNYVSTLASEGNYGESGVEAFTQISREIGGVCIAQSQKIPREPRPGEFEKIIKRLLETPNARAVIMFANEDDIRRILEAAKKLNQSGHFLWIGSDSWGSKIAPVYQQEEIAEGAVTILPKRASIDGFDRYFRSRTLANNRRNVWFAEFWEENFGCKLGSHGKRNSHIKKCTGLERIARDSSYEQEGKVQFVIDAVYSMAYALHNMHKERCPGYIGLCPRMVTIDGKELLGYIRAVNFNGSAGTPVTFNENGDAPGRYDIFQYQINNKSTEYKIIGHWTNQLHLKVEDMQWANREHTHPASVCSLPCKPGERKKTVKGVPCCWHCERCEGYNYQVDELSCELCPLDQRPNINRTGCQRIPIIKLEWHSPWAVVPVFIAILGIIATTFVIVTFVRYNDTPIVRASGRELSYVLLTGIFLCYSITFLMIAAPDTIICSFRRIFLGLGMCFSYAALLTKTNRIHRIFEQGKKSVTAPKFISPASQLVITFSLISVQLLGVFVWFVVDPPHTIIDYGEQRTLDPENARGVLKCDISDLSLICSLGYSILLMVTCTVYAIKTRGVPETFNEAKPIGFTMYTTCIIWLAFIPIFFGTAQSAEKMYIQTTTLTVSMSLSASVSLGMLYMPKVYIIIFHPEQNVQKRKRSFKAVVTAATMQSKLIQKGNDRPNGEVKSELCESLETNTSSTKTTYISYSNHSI", "experiment": "mGluR8 Gi/Go-coupled signaling modulation – cell-based, rat, thallium flux, HTS, primary screen (AID 488969)", "conditions": "HEK293 rat mGluR8, GIRK (G protein-gated inwardly rectifying potassium channel) thallium flux, FluoZin2; at 10 µM; stronger effect = higher value; submaximal glutamate (EC20) added with thallium", "values": [
      {"smiles": "Cc1cccc(N=C2NC(=O)/C(=C/c3cn(C)c4ccccc34)S2)c1", "z-score": -0.108},
      {"smiles": "CC1CC(C)CN(CC(O)COc2ccc3c(c2)CCC3)C1", "note": "(configuration not stated)", "z-score": 0.225},
      {"smiles": "COc1ccc2oc(C(=O)OCC(=O)c3ccc4c(c3)OCCO4)c(C)c2c1", "z-score": -0.327},
      {"smiles": "O=C(Cn1c(C(F)(F)F)nc2ccccc21)c1ccc(Br)cc1", "z-score": -0.0753},
      {"smiles": "CN(Cc1ccccc1)C(=O)Cn1c(=O)oc2cc(S(=O)(=O)NCc3ccccc3)ccc21", "z-score": -0.0728},
      {"smiles": "CC1(C)N=C(c2cccs2)C(C)(C)N1O", "z-score": -0.029},
      {"smiles": "COc1cccc(C(c2c(C)[nH]n(-c3ccccc3)c2=O)c2c(C)[nH]n(-c3ccccc3)c2=O)c1OC", "z-score": -0.0701},
      {"smiles": "Cc1ccc(-c2nn(-c3ccccc3)cc2CO)o1", "z-score": 0.267},
      {"smiles": "COc1ccc2nc(NC(=O)CSc3nc(C)cc(=O)[nH]3)sc2c1", "z-score": 0.103},
      {"smiles": "CC(Oc1ccccc1)C(=O)Nc1ccc(S(=O)(=O)N2CCOCC2)cc1", "note": "(configuration not stated)", "z-score": 0.987},
      {"smiles": "O=C(O)/C(=C\\c1ccco1)NC(=O)c1ccccc1", "z-score": -0.269},
      {"smiles": "CC1CCCN(CCCNC(=O)CCn2nc(-c3ccccc3)ccc2=O)C1", "note": "(configuration not stated)", "z-score": 0.271},
      {"smiles": "CCNC(=O)NC(=O)C(C)OC(=O)c1oc2ccccc2c1CSC1CCCCC1", "note": "(configuration not stated)", "z-score": -0.911},
      {"smiles": "COc1ccc(N2C(=O)C3CCCN3C2c2ccccc2)cc1Cl", "note": "(configuration not stated)", "z-score": -0.314},
      {"smiles": "CCN(CC)C(=O)Cn1ncc2c1-c1ccccc1OC2", "z-score": 0.919},
      {"smiles": "CCOCCc1nnc(NC(=O)COC)s1", "z-score": -0.0897},
      {"smiles": "COc1ccccc1NC(=O)N1CCN(c2ccccn2)CC1", "z-score": 0.411},
      {"smiles": "O=C(CSc1ncnc2nc[nH]c12)N1CCOCC1", "z-score": -0.527},
      {"smiles": "CCn1cnc2cc(NCc3ccc(OC)cc3)ccc21", "z-score": -0.159},
      {"smiles": "CCN1CCN(CC(=O)NC2CCCCC2)C(=O)C1=O", "z-score": -0.0589},
      {"smiles": "O=C(c1ccc(N2CCCC2=O)cc1)N1CCOCC1", "z-score": 0.832},
      {"smiles": "Cc1cccc(NC(=O)CCCN2C(=O)c3cccc4cccc(c34)C2=O)c1", "z-score": 0.0083},
      {"smiles": "N#Cc1c(NC(=O)COC(=O)c2ccc(S(=O)(=O)N3CCCC3)cc2)sc2c1CCCCC2", "z-score": -0.303},
      {"smiles": "C(=C\\c1ccccc1)/CSc1nnc(-c2ccccc2)n1Cc1ccco1", "z-score": -0.701},
      {"smiles": "CSc1ccccc1NC(=O)c1c(Br)cnn1C", "z-score": 0.0242},
      {"smiles": "NC(=O)c1cc(-c2ccccc2)sc1NC(=O)Cc1ccc(S(=O)(=O)N2CCOCC2)s1", "z-score": -0.0282},
      {"smiles": "CNC(=O)Nc1ccc(Cl)cc1", "z-score": 0.332},
      {"smiles": "CC(=O)N1SC(N)=NC1c1ccccc1", "note": "(configuration not stated)", "z-score": -0.413},
      {"smiles": "CCOc1cc(C)c(S(=O)(=O)Nc2ccc3cn[nH]c3c2)cc1C", "z-score": 0.367},
      {"smiles": "CCOC(=O)Cc1nnc(NC(=O)CSc2ccc(Cl)cc2)s1", "z-score": -0.259},
      {"smiles": "CC1CCC(C(C)C)C(OCC[N+](C)(C)C)C1", "note": "(configuration not stated)", "z-score": -0.0727},
      {"smiles": "COC(=O)c1ccc(COc2ccccc2/C=C(\\C#N)C(=O)Nc2ccccc2C)cc1", "z-score": -0.436},
      {"smiles": "COc1ccc(/C=C(/C#N)C(=O)NC2CCCCC2)cc1Br", "z-score": 0.0154},
      {"smiles": "O=C1c2ccccc2C(=O)N1Cc1nc2ccccc2c(=O)n1CCN1CCOCC1", "z-score": -0.0784},
      {"smiles": "COC(=O)C1CCN(C(=O)NC(C)(C)C)CC1", "z-score": 0.135},
      {"smiles": "CC(C)C(=O)N1CCN(c2ccc(NC(=O)c3ccc4c(c3)OCCO4)cc2Cl)CC1", "z-score": -0.0285},
      {"smiles": "COC(=O)NC1CCC(CC2CCC(NC(=O)OC)CC2)CC1", "note": "(configuration not stated)", "z-score": 0.0332},
      {"smiles": "Oc1c(N=Nc2ccccn2)ccc2ccccc12", "z-score": "active: 13.6"},
      {"smiles": "COc1ccc(OC)c2c(C)cc(N3CCN(C(=O)c4ccc(Cl)cc4)CC3)nc12", "z-score": -0.0445},
      {"smiles": "Cc1ccc(NC(=O)CSC2=Nc3ccccc3C3CC=NN23)c(C)c1", "note": "(configuration not stated)", "z-score": 0.371},
      {"smiles": "O=C(NC(NC(=S)Nc1ccc(Cl)cc1Cl)C(Cl)(Cl)Cl)c1cccc([N+](=O)[O-])c1", "note": "(configuration not stated)", "z-score": 1.67},
      {"smiles": "O=C(Nc1nc(=S)ss1)c1ccc(Cl)cc1Cl", "z-score": "active: 4.46"},
      {"smiles": "Cc1nc2ccccc2nc1OCC(=O)Nc1cc(C(F)(F)F)ccc1N1CCOCC1", "z-score": -1.17},
      {"smiles": "Oc1ccc(Nc2nc3ccccc3nc2Nc2ccc(O)cc2)cc1", "z-score": -0.339},
      {"smiles": "CC(C)=C1C(=O)NN(c2cccc(Cl)c2)C1=O", "z-score": -0.095},
      {"smiles": "Cc1cc(=O)oc2cc(OC(C)C(=O)N3CCCc4ccccc43)ccc12", "note": "(configuration not stated)", "z-score": -0.309},
      {"smiles": "CSc1ccc(CCNC(=O)CSc2ccsc2[N+](=O)[O-])cc1", "z-score": -0.173},
      {"smiles": "CCc1c(C(=O)NCc2ccc3c(c2)OCO3)[nH]c(C)c1C(C)=O", "z-score": -0.4},
      {"smiles": "O=C(/C=C/c1ccco1)c1ccc(NC(=O)C23CC4CC(CC(C4)C2)C3)cc1", "z-score": -2.44},
      {"smiles": "CCOC(=O)c1[nH]c(C)c(CN(CCc2ccccc2)S(C)(=O)=O)c1C", "z-score": -0.0466},
      {"smiles": "Cc1cccc2c1N(CCOc1ccccc1Cl)C(=O)C2=O", "z-score": -0.337},
      {"smiles": "CCCCOC(=O)Nc1nccs1", "z-score": -0.0444},
      {"smiles": "Cc1ccc2c(c1)nnn2C1CCN(S(=O)(=O)c2cccc(S(=O)(=O)N(C)C)c2)CC1", "z-score": 0.118},
      {"smiles": "O=C(NCCc1cn2ccsc2n1)c1cccs1", "z-score": 0.237},
      {"smiles": "Cc1ccc(C(C)NC(=O)c2cc(C)oc2C)cc1", "note": "(configuration not stated)", "z-score": 1.04},
      {"smiles": "COc1ccc(S(=O)(=O)N2CCOCC2)c(Cl)c1Cl", "z-score": -0.116},
      {"smiles": "O=C(Nc1ccccc1)Nc1cc(Cl)cc(Cl)c1", "z-score": 0.125},
      {"smiles": "CCOC(=O)C1CCCN(c2c(NCCN(C)Cc3ccccc3)c(=O)c2=O)C1", "note": "(configuration not stated)", "z-score": -0.33},
      {"smiles": "Cc1cc(=O)oc2c(CN3CCC(C)CC3)c(O)c(Cl)cc12", "z-score": 0.38},
      {"smiles": "O=C(c1ccco1)N(CCC(c1ccccc1)c1ccco1)Cc1ccc(F)cc1", "note": "(configuration not stated)", "z-score": -0.207},
      {"smiles": "O=C(CN1CCC(c2nc3ccccc3s2)CC1)NCc1ccccc1", "z-score": -0.322},
      {"smiles": "O=C(NCc1ccccc1)c1cccc(NS(=O)(=O)c2cccc3cccnc23)c1", "z-score": -0.228},
      {"smiles": "COc1ccc(-c2csc(/C(C#N)=C\\c3cccc([N+](=O)[O-])c3)n2)cc1", "z-score": -0.607},
      {"smiles": "CCOC(=O)c1nc(C)n(-c2ccc(Cl)cc2)n1", "z-score": 0.115},
      {"smiles": "COc1ccc(Cl)cc1Nc1nc(C)cc(C)c1C(N)=O", "z-score": 0.336},
      {"smiles": "COc1ccc(C2=NOC(C(=O)Nc3cccnc3)C2)cc1", "note": "(configuration not stated)", "z-score": -0.0465},
      {"smiles": "CN1c2ccccc2C(C)(C)C12CC(c1ccc(S(=O)(=O)N3CCCCC3)cc1)=NO2", "note": "(configuration not stated)", "z-score": -0.0605},
      {"smiles": "COC(=O)C1C2C=CC3(CN(c4cccc(Cl)c4)C(=O)C13)O2", "note": "(configuration not stated)", "z-score": -0.0902},
      {"smiles": "COC(=O)CSc1nc2cc3c(cc2cc1C#N)OCO3", "z-score": -0.566},
      {"smiles": "O=C(NC1CCCCC1)C1CC(O)CN1C(=O)OCc1ccccc1", "note": "(configuration not stated)", "z-score": -0.0816},
      {"smiles": "CCOc1ccc(-n2c(N)c(-c3nc4ccccc4n3C)c3nc4ccccc4nc32)cc1", "z-score": -0.274},
      {"smiles": "O=C(Nc1ccc(N2CCOCC2)cc1)c1cccc(S(=O)(=O)N2CCCC2)c1", "z-score": -0.279}
    ]}
  ]
}
